# Experimental data published in the supplement of paper PMC11369174, “Proteome-scale characterisation of motif-based interactome rewiring by disease mutations” (Molecular Systems Biology, 2024).
# This is one part of the list. Read counts after selection give these values, which scatter widely.
# T1: CSK21_Pkinase__P68400_1_335
# T1 chain: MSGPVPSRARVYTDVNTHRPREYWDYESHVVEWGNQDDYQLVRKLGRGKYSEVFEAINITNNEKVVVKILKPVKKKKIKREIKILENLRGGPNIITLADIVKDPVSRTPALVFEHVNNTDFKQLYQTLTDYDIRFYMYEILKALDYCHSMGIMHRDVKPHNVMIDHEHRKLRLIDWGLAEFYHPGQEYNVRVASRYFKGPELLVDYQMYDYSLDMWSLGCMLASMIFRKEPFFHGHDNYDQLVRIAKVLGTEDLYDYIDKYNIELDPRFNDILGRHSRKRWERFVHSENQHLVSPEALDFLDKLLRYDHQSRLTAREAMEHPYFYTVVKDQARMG
# T2: EPHA3_Pkinase__P29320_606_947
# T2 chain: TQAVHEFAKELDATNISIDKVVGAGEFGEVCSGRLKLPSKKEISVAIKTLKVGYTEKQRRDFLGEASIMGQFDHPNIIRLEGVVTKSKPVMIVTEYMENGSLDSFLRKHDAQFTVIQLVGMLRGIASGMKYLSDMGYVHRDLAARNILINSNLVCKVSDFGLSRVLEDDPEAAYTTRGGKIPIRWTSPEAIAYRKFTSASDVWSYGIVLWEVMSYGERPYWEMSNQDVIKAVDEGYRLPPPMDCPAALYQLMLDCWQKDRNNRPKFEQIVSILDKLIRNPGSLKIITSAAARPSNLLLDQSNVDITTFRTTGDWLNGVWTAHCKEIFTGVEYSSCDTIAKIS
# T3: EPHB2_Pkinase__P29323_604_898
# T3 chain: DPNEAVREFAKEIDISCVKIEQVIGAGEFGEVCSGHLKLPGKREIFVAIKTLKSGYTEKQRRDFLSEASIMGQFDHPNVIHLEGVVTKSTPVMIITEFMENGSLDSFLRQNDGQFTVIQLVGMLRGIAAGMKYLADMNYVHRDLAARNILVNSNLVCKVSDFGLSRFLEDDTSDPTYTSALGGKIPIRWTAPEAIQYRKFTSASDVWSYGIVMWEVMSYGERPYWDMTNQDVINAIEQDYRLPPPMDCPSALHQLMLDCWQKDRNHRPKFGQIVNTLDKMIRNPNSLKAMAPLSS
# T4: DOK1_PTB__Q99704_151_256
# T4 chain: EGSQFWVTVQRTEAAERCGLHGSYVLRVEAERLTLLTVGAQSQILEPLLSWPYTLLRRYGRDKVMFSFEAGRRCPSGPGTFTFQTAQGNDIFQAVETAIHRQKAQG
# Molecular target: T1, CSK21_Pkinase__P68400_1_335
# Test: mean normalised NGS count of phage-displayed peptide after selection on bait (% of reads); baits are purified protein domains named by gene / domain / UniProt id / residues; peptides come from disordered regions of human proteins; higher = stronger enrichment / binding
# Settings: replicate selections in which the peptide was seen: 4
row,Binder,mean normalised NGS count
1,WNSLVLADSHGDIITV [GATA4 427-442 mut P43694.A442V],6.23
2,LYEHLTLEKSSSSLAV [BRCA2 2362-2377 mut P51587.N2374S],0.191
3,QVLSILHANPQLLAAF [EP300 2069-2084 wt],4.79

# Molecular target: T2, EPHA3_Pkinase__P29320_606_947
# Test: as above
# Settings: replicate selections in which the peptide was seen: 4
row,Binder,mean normalised NGS count
1,WNSLVLADSHGDIITV [GATA4 427-442 mut P43694.A442V],5.78

# Molecular target: T3, EPHB2_Pkinase__P29323_604_898
# Test: as above
# Settings: replicate selections in which the peptide was seen: 3
row,Binder,mean normalised NGS count
1,WNSLVLADSHGDIITV [GATA4 427-442 mut P43694.A442V],0.399
2,QVLSILHANPQLLAAF [EP300 2069-2084 wt],0.632

# Molecular target: T2, EPHA3_Pkinase__P29320_606_947
# Test: as above
# Settings: replicate selections in which the peptide was seen: 3
row,Binder,mean normalised NGS count
1,QVLSILHANPQLLAAF [EP300 2069-2084 wt],2.11

# Molecular target: MK08_Pkinase__P45983_1_363
# Test: as above
# Settings: replicate selections in which the peptide was seen: 3
# Chain of MK08_Pkinase__P45983_1_363 (chain, as listed by the source): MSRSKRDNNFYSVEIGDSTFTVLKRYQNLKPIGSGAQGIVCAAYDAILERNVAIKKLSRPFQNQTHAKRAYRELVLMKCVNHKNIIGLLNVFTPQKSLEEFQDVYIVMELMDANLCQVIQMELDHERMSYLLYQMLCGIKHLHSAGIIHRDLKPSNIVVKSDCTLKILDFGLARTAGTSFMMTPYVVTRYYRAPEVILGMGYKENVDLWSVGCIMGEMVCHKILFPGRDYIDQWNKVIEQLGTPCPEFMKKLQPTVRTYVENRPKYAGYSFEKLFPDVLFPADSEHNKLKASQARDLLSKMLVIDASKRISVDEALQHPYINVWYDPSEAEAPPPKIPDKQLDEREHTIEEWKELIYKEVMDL
row,Binder,mean normalised NGS count
1,QVLSILHANPQLLAAF [EP300 2069-2084 wt],0.0706

# Molecular target: DMD_WW-EF__P11532_3055_3088
# Test: as above
# Settings: replicate selections in which the peptide was seen: 3
row,Binder,mean normalised NGS count
1,YHNYLPPPYPGSSQSQ [RUNX2 418-433 mut Q13950.T420N],0.0551
2,QPPPYDHLFEVALPKT [TSC1 600-615 wt],0.0353

# Same assay, conditions: replicate selections in which the peptide was seen: 4
row,Binder,mean normalised NGS count
1,LAYPPPPSYPSPKPAM [EGR2 200-215 mut P11161.T215M],18.8
2,LAYPPPPSYPSPKPAT [EGR2 200-215 wt],6.71
3,ATTHYHNYLPPPYPGS [RUNX2 414-429 mut Q13950.T420N],5.55
4,ATTHYHTYLPPPYPGS [RUNX2 414-429 wt],0.131
5,PPPYLRTEFHQHQQQH [AUTS2 516-531 mut Q8WXX7.H529Q],0.0488
6,SHATPPPPYPTDASTV [TP63 535-550 mut Q9H3D4.I549T],11.7
7,TWLSTEADFHPLPPSY [KNSTRN 16-31 mut Q9Y448.S24F],0.0289
8,TWLSTEADSHPLPPSY [KNSTRN 16-31 wt],0.286

# Same assay, conditions: replicate selections in which the peptide was seen: 5
row,Binder,mean normalised NGS count
1,STTSPPSYASVTKPDK [SCN9A 1951-1966 mut Q15858.D1959A],3.1
2,STTSPPSYASVTKPDK [SCN3A 1951-1966 mut Q15858.D1959A],3.1

# Same assay, conditions: replicate selections in which the peptide was seen: 6
row,Binder,mean normalised NGS count
1,DATSSTTSPPSYASVT [SCN9A 1947-1962 mut Q15858.D1959A],17.7
2,SHATPPPPYPTDASIV [TP63 535-550 wt],10.9

# Molecular target: T4, DOK1_PTB__Q99704_151_256
# Test: as above
# Settings: replicate selections in which the peptide was seen: 2
row,Binder,mean normalised NGS count
1,MDALLGGSEIWRDTDF [TYR 185-200 mut P14679.I198T],0.0156
2,HAMAARKALDRTTVAA [CSRP3 36-51 mut P50461.S46R],3.06

# Same assay, conditions: replicate selections in which the peptide was seen: 3
row,Binder,mean normalised NGS count
1,WTDIENSIVSVERMQD [ABCC6 1223-1238 mut O95255.L1226I],3.55

# Same assay, conditions: replicate selections in which the peptide was seen: 4
row,Binder,mean normalised NGS count
1,WKDVEEINGNNYVYID [KIT 557-572 mut P10721.V559D],0.224
2,ALLGGSEIWRDTDFAH [TYR 187-202 mut P14679.I198T],0.00632

# Same assay, conditions: replicate selections in which the peptide was seen: 5
row,Binder,mean normalised NGS count
1,WTDLENSIVSVERMQD [ABCC6 1223-1238 wt],2.59
2,WTDLENSIVSVERMQH [ABCC6 1223-1238 mut O95255.D1238H],2.34
3,MDALLGGSEIWRDIDF [TYR 185-200 wt],1.02
4,MDALLGGSEIWRDINF [TYR 185-200 mut P14679.D199N],0.464
5,MDALLGGYEIWRDIDF [TYR 185-200 mut P14679.S192Y],11.1

# Molecular target: MAP1LC3B_ATG8__Q9GZQ8_2_119
# Test: as above
# Settings: replicate selections in which the peptide was seen: 6
row,Binder,mean normalised NGS count
1,WTDLENSIVSVERMQD [ABCC6 1223-1238 wt],3.07
2,WTDLENSIVSVERMQH [ABCC6 1223-1238 mut O95255.D1238H],3.08
